Experimental data taken from the supplement of paper PMC4967469.
pIC50: −log10 of the molar value. IC50 is the fitted dose that halves viability relative to control wells, and lower means more sensitive; a fit beyond the top or the lowest dose is shown as a bound at that dose. The AUC spans the tested range (256-fold, ending at the top dose) of the same fit; the more sensitive the line, the further below 1. A top dose marked as inferred is not printed in the source and was worked back from the curve model. For part of these data: Where an entry number is given, a second screen of the drug exists; the two often differ.

Columns and labels:
Assay in all cases: Viability of human cancer cell lines after 72 h of drug (GDSC screen)
SB-525334 = compound: Cc1cccc(-c2[nH]c(C(C)(C)C)nc2-c2ccc3nccnc3c2)n1 [SB-525334]; conditions: top dose 20 µM; top dose inferred
Description: (§1)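 Human cancer cell lines in 384-well plates, medium with 10% serum, drug for 72 h over a 256-fold dose range (nine 2-fold or five 4-fold steps up to the top dose). Adherent lines were fixed and stained with the nucleic acid dye Syto60, suspension lines read with resazurin; signal relative to control wells, capped at 0 and 100%. One two-parameter sigmoid per drug and line, fitted in a mixed model over all curves with the slope shared within a line.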

Wee1 inhibitor 681640 = compound: O=C1NC(=O)c2c1c(-c1ccccc1Cl)cc1[nH]c3ccc(O)cc3c21 [Wee1 inhibitor 681640]; conditions: top dose 2 µM; top dose inferred
Description: as §1

Olaparib = compound: O=C(c1cc(Cc2n[nH]c(=O)c3ccccc23)ccc1F)N1CCN(C(=O)C2CC2)CC1 [Olaparib]
Description: as §1

Shikonin = compound: CC(C)=CC[C@@H](O)C1=CC(=O)c2c(O)ccc(O)c2C1=O [Shikonin]; conditions: top dose 16 µM; top dose inferred
Description: as §1

HG-5-113-01 = compound: CNC(=O)c1ccc(Nc2cc(Nc3ccccc3S(=O)(=O)C(C)C)c3cc[nH]c3n2)nc1 [HG-5-113-01]; conditions: top dose 10 µM; top dose inferred
Description: as §1

VX-702 = compound: NC(=O)c1ccc(N(C(N)=O)c2c(F)cccc2F)nc1-c1ccc(F)cc1F [VX-702]; conditions: top dose 2 µM; top dose inferred
Description: as §1

BIRB 0796 = compound: Cc1ccc(-n2nc(C(C)(C)C)cc2NC(=O)Nc2ccc(OCCN3CCOCC3)c3ccccc23)cc1 [BIRB 0796]; conditions: top dose 10 µM; top dose inferred
Description: as §1

BMS-536924 = compound: Cc1cc(N2CCOCC2)cc2[nH]c(-c3c(NC[C@@H](O)c4cccc(Cl)c4)cc[nH]c3=O)nc12 [BMS-536924]; conditions: top dose 4 µM; screen: GDSC drug entry 1091; top dose inferred
Description: as §1

[1] = top dose 5 µM, screen: GDSC drug entry 1017, top dose inferred
[2] = top dose 10 µM, screen: GDSC drug entry 1495

Cell Line	AUC (SB-525334)	pIC50 (SB-525334)	AUC (Wee1 inhibitor 681640)	pIC50 (Wee1 inhibitor 681640)	AUC (Olaparib; [1])	pIC50 (Olaparib; [1])	AUC (Olaparib; [2])	pIC50 (Olaparib; [2])	AUC (Shikonin)	pIC50 (Shikonin)	AUC (HG-5-113-01)	pIC50 (HG-5-113-01)	AUC (VX-702)	pIC50 (VX-702)	AUC (BIRB 0796)	pIC50 (BIRB 0796)	AUC (BMS-536924)	pIC50 (BMS-536924)
H2369 (mesothelioma, adherent)	0.976	< 4.70	0.931	< 5.70	0.986	< 5.30	0.932	< 5.00	0.568	5.81	0.829	5.19	0.987	< 5.70	0.857	5.07	0.969	< 5.40
H2461 (mesothelioma, adherent)	0.973	< 4.70	0.983	< 5.70	0.977	< 5.30	0.88	< 5.00	0.802	4.99	0.776	5.30	0.983	< 5.70	0.96	< 5.00	0.934	< 5.40
H2595 (mesothelioma, adherent)	0.973	< 4.70	0.978	< 5.70	0.93	< 5.30	0.968	< 5.00	0.697	5.35	0.844	< 5.00	0.967	< 5.70	0.964	< 5.00	0.968	< 5.40
H2731 (mesothelioma, adherent)	0.883	< 4.70	0.952	< 5.70	0.984	< 5.30	0.982	< 5.00	0.845	4.85	0.792	5.28	0.984	< 5.70	0.893	< 5.00	0.92	< 5.40
H2795 (mesothelioma, adherent)	0.941	< 4.70	0.963	< 5.70	0.865	5.37	0.954	< 5.00	0.796	5.13	0.792	5.35	0.906	< 5.70	0.985	< 5.00	0.875	5.42
H2869 (mesothelioma, adherent)	0.905	< 4.70	0.98	< 5.70	0.981	< 5.30	0.948	< 5.00	0.471	6.09	0.898	< 5.00	0.982	< 5.70	0.918	< 5.00	0.888	< 5.40
HCC38 (breast, adherent)	0.889	< 4.70	0.919	< 5.70	0.986	< 5.30	0.97	< 5.00	0.5	6.00	0.862	5.01	0.986	< 5.70	0.985	< 5.00	0.953	< 5.40
HCC1419 (breast, adherent)	0.848	< 4.70	0.905	< 5.70	0.982	< 5.30	0.98	< 5.00	0.581	5.74	0.943	< 5.00	0.982	< 5.70	0.912	< 5.00	0.98	< 5.40
HCC1428 (breast, adherent)	0.977	< 4.70	0.967	< 5.70	0.977	< 5.30	0.971	< 5.00	0.772	5.17	0.931	< 5.00	0.984	< 5.70	0.982	< 5.00	0.983	< 5.40
HCC1569 (breast, adherent)	0.956	< 4.70	0.844	< 5.70	0.981	< 5.30	0.906	< 5.00	0.46	6.12	0.863	< 5.00	0.981	< 5.70	0.965	< 5.00	0.976	< 5.40
HCC1954 (breast, adherent)	0.983	< 4.70	0.868	< 5.70	0.971	< 5.30	0.965	< 5.00	0.424	6.22	0.887	< 5.00	0.985	< 5.70	0.955	< 5.00	0.969	< 5.40
HCC-56 (large intestine, adherent)	0.984	< 4.70	0.914	< 5.70	0.987	< 5.30	0.986	< 5.00	0.599	5.73	0.71	5.60	0.984	< 5.70	0.979	< 5.00	0.8	5.70
HCC-78 (lung adenocarcinoma, adherent)	0.912	< 4.70	0.907	< 5.70	0.966	< 5.30	0.913	< 5.00	0.76	5.18	0.7	5.60	0.977	< 5.70	0.957	< 5.00	0.7	5.99
HEC-1 (endometrium, adherent)	0.989	< 4.70	0.943	< 5.70	0.946	< 5.30	0.964	< 5.00	0.518	5.95	0.757	5.48	0.986	< 5.70	0.989	< 5.00	0.928	< 5.40
HGC-27 (stomach, adherent)	0.93	< 4.70	0.946	< 5.70	0.895	5.35	0.802	5.39	0.262	6.62	0.535	6.12	0.988	< 5.70	0.959	< 5.00	0.949	< 5.40
HSC-2 (head and neck, adherent)	0.987	< 4.70	0.963	< 5.70	0.982	< 5.30	0.931	< 5.00	0.26	6.66	0.735	5.56	0.989	< 5.70	0.986	< 5.00	0.932	< 5.40
HT55 (large intestine, adherent)	0.99	< 4.70	0.99	< 5.70	0.99	< 5.30			0.593	5.74	0.851	5.12	0.99	< 5.70	0.979	< 5.00	0.873	5.42
HT-115 (large intestine, adherent)	0.985	< 4.70	0.989	< 5.70	0.991	< 5.30	0.991	< 5.00	0.702	5.46	0.738	5.56	0.991	< 5.70	0.988	< 5.00	0.947	< 5.40
HT-1197 (bladder, adherent)	0.985	< 4.70	0.959	< 5.70	0.985	< 5.30	0.913	< 5.00	0.345	6.47	0.894	< 5.00	0.985	< 5.70	0.966	< 5.00	0.947	< 5.40
Hs683 (glioma, adherent)	0.986	< 4.70	0.951	< 5.70	0.988	< 5.30	0.986	< 5.00	0.42	6.22	0.881	< 5.00	0.985	< 5.70	0.967	< 5.00	0.974	< 5.40
Hs939-T (melanoma, adherent)	0.93	< 4.70	0.986	< 5.70	0.969	< 5.30	0.975	< 5.00	0.333	6.49	0.912	< 5.00	0.985	< 5.70	0.941	< 5.00	0.917	< 5.40
HuH-7 (liver, adherent)	0.925	< 4.70	0.977	< 5.70	0.981	< 5.30	0.941	< 5.00	0.52	5.95	0.788	5.36	0.987	< 5.70	0.959	< 5.00	0.878	< 5.40
HuO9 (osteosarcoma, adherent)	0.961	< 4.70	0.835	5.82	0.963	< 5.30	0.931	< 5.00	0.586	5.75	0.792	5.29	0.969	< 5.70	0.943	< 5.00	0.801	5.66
HuP-T3 (pancreas, adherent)	0.966	< 4.70	0.971	< 5.70	0.968	< 5.30	0.98	< 5.00	0.558	5.83	0.791	5.25	0.983	< 5.70	0.936	< 5.00	0.808	5.58
HuP-T4 (pancreas, adherent)	0.939	< 4.70	0.983	< 5.70	0.984	< 5.30			0.511	5.97	0.644	5.79	0.984	< 5.70	0.966	< 5.00	0.786	5.73
IGR-1 (melanoma, adherent)	0.552	5.77	0.948	< 5.70	0.974	< 5.30			0.258	6.65	0.832	5.27	0.984	< 5.70	0.99	< 5.00	0.934	< 5.40
